# In PubChem BioAssay AID1508623 (National Center for Advancing Translational Sciences (NCATS), 2021):
# Screen size: about 48,000 compounds; about 450 (0.94%) were called active. Inconclusive results, whose numbers are uncertain, are shown with a selection of clear calls. Calls follow the shape of the dose curve; as a rule, active = well fitted inhibition curve with a large enough effect; inconclusive = small, poorly fitted or top-dose-only effect; inactive = no such curve, though single readings can be large or run the other way. A potency beside an inconclusive call is a rough fit, not a confirmed value.
# Test: Primary qHTS for Identification of Small Molecule Inhibitors of Huntingtin Promoter Activity; also: nearly all actives have a fitted effect of over 50% in size
# Conditions: HEK293 HTT promoter firefly luciferase reporter (activity 0% = vehicle and -100% = no light), 24 h; series mostly up to 57.5 µM
# Summary of the method: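 HEK293 Fluc reporter, 2,500 cells/well, 24 h pre-culture; cpds up to 57.5 uM final, 24 h 37 degrees C; Dual-Glo, 10 min RT; normalized vehicle = 0%, zero RLU = -100%.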
# Potency is read from the fitted curve at half-maximal effect; tags tell the direction and shape of the fitted curve.
row,SMILES,Potency
1,CCn1c2ccccc2c2nnc(SCC(=O)Nc3ccccc3OC)nc21,inactive
2,CCOc1ccccc1CNC(=O)C1CCN(c2nnc(C)c3c(C)n(-c4ccc(C)cc4)nc23)CC1,"inconclusive: 39.8 µM [inhibitor, single point]"
3,O=C(CC1(O)C(=O)N(CCc2ccccc2)c2ccc(Br)cc21)c1ccccc1 (stereo not given),"inconclusive: 39.8 µM [inhibitor, single point]"
4,COc1ccccc1NC(=O)c1sc2nc(C)c(C(=O)Nc3ccc(Cl)cc3)c(-c3ccc(Br)cc3)c2c1N,"inconclusive: 10 µM [inhibitor, partial curve]"
5,COc1cccc(-c2cc(C(F)(F)F)n3nc(-c4ccc(C)cc4)cc3n2)c1,inactive
6,Cc1cc(O)c2ccccc2c1O,"inconclusive: 35.5 µM [inhibitor, single point]"
7,Fc1ccc(Nc2nc(SCc3ccc(Cl)cc3)nc3ccccc23)cc1,inactive
8,CCC(=O)N[C@H]1CC[C@H](C(=O)N(C)c2ccc(-c3nc4ccccc4o3)cc2)C1,inactive
9,O=C(NCCn1cc(SCc2ccc(C(F)(F)F)cc2)c2ccccc21)c1ccccc1F,"inconclusive: 39.8 µM [inhibitor, single point]"
10,O=S(=O)(NCCc1ccc(Cl)cc1)c1ccc(N2CCCCS2(=O)=O)cc1,"inconclusive: 22.4 µM [inhibitor, partial curve, poor fit]"
11,COc1ccc(C2=C(C)C(=O)N(Cc3ccc(C(=O)NCc4ccccc4C)cc3)S2(=O)=O)cc1,"inconclusive: 10 µM [inhibitor, partial curve]"
12,CCOc1ccc(NC(=O)CCn2c(-c3ccc(F)cc3)cc(C(C)=O)c2C)cc1,"inconclusive: 20 µM [inhibitor, single point]"
13,O=C(CSc1nnc(-c2ccccc2)c(-c2ccccc2)n1)Nc1ccccc1Cl,"inconclusive: 14.1 µM [inhibitor, single point]"
14,Nc1ccc(C(=O)Nc2cccc(-c3nc(N4CCOCC4)c4oc5ncccc5c4n3)c2)cn1,"inconclusive: 2.73 µM [inhibitor, full curve]"
15,Cc1cc(C)cc(OC(=O)c2cc(-c3ccc4c(c3)OCCO4)on2)c1,inactive
16,CN(C)CCCN1c2ccccc2Sc2ccc(Cl)cc21,"inconclusive: 39.8 µM [inhibitor, single point]"
17,CCOc1ccc(-n2c(Cc3ccccc3)nnc2SCc2nc(-c3ccccc3C)no2)cc1,"inconclusive: 35.5 µM [inhibitor, single point]"
18,CCS(=O)(=O)N1CCc2cc(C(=O)N3CCN(c4cccc(C(F)(F)F)c4)CC3)ccc21,"inconclusive: 39.8 µM [inhibitor, single point]"
19,Fc1cccc(-c2nc(-c3ccncc3)no2)c1,inactive
20,COc1ccc(CNC(=O)Cn2ccc3cc(S(=O)(=O)N4CCCCCC4)ccc32)cc1OC,"inconclusive: 28.2 µM [inhibitor, single point]"

row,SMILES,Potency
1,Cc1ccc(Cl)cc1N1CCN(C(=O)c2cc(S(=O)(=O)N3CCC(C)CC3)cn2C)CC1,"inconclusive: 39.8 µM [inhibitor, single point]"
2,CCN1CCC(n2cc(CNc3cc(Cl)c4ncc(C#N)c(Nc5ccc(F)c(Cl)c5)c4c3)nn2)CC1,inactive
3,Cc1ccccc1CSc1cn(CCNC(=O)c2cccs2)c2ccccc12,"inconclusive: 28.2 µM [inhibitor, partial curve, poor fit]"
4,CCC(O)c1nc2ccccc2n1Cc1cccc(Cl)c1 (stereo not given),"inconclusive: 39.8 µM [inhibitor, single point]"
5,Cn1cc(-c2ccncc2)c(-c2ccc(OCc3ccc4ccccc4n3)cc2)n1,"inconclusive: 6.11 µM [inhibitor, partial curve]"
6,O=C(NCc1ccc2c(c1)CCN2C(=O)c1ccc(F)cc1)c1ccc(Br)o1,"inconclusive: 35.5 µM [inhibitor, single point]"
7,CCCS(=O)(=O)c1ncc(Cl)c(C(=O)N(Cc2ccccc2)Cc2ccco2)n1,"inconclusive: 28.2 µM [inhibitor, single point]"
8,Cc1ccc(-c2onc(C)c2C)cc1S(=O)(=O)N1CCCCC1,"inconclusive: 35.5 µM [inhibitor, single point]"
9,Cc1cc(NC(=O)N2CC=C(c3c[nH]c4ccccc34)CC2)ccc1Br,"inconclusive: 10 µM [inhibitor, partial curve, poor fit]"
10,Cn1nc(C(=O)NCc2ccccc2)c2c1-c1ccccc1SC2,inactive
11,O=c1[nH]c(=O)c2ccccc2o1,inactive
12,CCc1ccc(S(=O)(=O)c2nnn3c2nc(NCCc2ccccc2)c2sccc23)cc1,"inconclusive: 20 µM [inhibitor, single point]"
13,Cc1nc2c(cnn2-c2ccccc2Cl)c(=O)n1-c1ccc(C(C)C)cc1,"inconclusive: 39.8 µM [inhibitor, single point]"
14,COc1cccc(-c2nc(SCC(=O)Nc3ccc4c(c3)OCO4)c(-c3ccccc3)[nH]2)c1,"inconclusive: 35.5 µM [inhibitor, single point]"
15,COCCNC(=O)c1ccc2c(c1)N(Cc1cccc(Cl)c1)C(=O)c1ccccc1S2(=O)=O,"inconclusive: 20 µM [inhibitor, single point]"
16,COc1ccccc1Oc1nc2c(c(=O)n(C)c(=O)n2C)n1Cc1cccc(Br)c1,"inconclusive: 35.5 µM [inhibitor, single point]"
17,CC(NCc1ccc2c(c1)nc(NC(=O)c1ccc(-c3cn[nH]c3)s1)n2CC(C)(C)O)C(C)(C)C (stereo not given),"inconclusive: 1.93 µM [inhibitor, full curve]"
18,CCOc1ccc(CCNC(=O)CN2C(=O)COc3ccc(S(=O)(=O)N4CCC(C)CC4)cc32)cc1,"inconclusive: 39.8 µM [inhibitor, partial curve, poor fit]"
19,c1cncc(CN2CCC(n3ncc4c(N5CCOCC5)nc(-c5ccc6[nH]ccc6c5)nc43)CC2)c1,"inconclusive: 3.85 µM [inhibitor, full curve]"
20,Cc1cc(C)cc(Nc2cc(-c3ccccc3)nc(C)n2)c1,"inconclusive: 25.1 µM [inhibitor, partial curve, poor fit]"
